Test results as given in publication PMC6919601, “Identification of Plasmodium dipeptidyl aminopeptidase allosteric inhibitors by high throughput screening” (PLoS ONE, 2019).
Among all 110,000 compounds or so, about 230 (0.21%) showed an effect of 50% or more. Some of the results follow.

Each molecule was assayed against DPAP1 (Plasmodium falciparum, UniProt Q8IIJ9) (assay: primary screen, percent inhibition; read by cleavage of a fluorogenic dipeptide substrate; higher = more effect of the substance).
Sequence of DPAP1 (Q8IIJ9 whole entry, looked up): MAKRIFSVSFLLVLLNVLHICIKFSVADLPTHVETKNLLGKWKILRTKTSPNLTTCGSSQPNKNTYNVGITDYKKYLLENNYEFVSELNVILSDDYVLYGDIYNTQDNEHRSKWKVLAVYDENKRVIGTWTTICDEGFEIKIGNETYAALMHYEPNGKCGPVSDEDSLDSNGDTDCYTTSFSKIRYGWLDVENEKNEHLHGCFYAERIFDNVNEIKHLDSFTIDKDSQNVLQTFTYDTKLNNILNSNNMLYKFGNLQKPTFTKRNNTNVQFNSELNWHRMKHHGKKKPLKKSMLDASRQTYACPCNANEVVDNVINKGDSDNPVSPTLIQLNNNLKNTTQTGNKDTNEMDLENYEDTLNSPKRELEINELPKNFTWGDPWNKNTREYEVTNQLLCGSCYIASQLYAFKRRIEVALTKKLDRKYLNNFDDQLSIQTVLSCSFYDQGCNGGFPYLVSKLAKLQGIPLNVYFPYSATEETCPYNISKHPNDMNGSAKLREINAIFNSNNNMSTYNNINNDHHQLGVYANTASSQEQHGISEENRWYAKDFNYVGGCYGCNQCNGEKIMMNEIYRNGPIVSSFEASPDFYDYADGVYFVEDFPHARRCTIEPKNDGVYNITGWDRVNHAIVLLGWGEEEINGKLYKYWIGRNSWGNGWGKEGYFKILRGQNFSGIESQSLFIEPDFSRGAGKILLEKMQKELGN
Parameters: species or system P. falciparum D10 trophozoite lysates; single well
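Further: 30 min substrate incubation versus DMSO and 10 µM JCP410 controls.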

SMILES	% Inhibition @ 10 uM [%]
CC1(C)OC[C@H]2O[C@@H](Oc3cccc4ccccc34)[C@H](O)[C@@H](O)[C@@H]2O1	1.4
CN(Cc1ccccc1)C(=O)CN1CCCC1=O	11.8
N#Cc1c(NC(=O)C2c3ccccc3Oc3ccccc32)sc2c1CCCC2	3.94
Cc1c(Cl)cccc1NS(=O)(=O)c1ccc2ccccc2c1	3.53
CSC1=NSC2=NC(=O)/C(=C\c3ccc(-c4ccccc4)o3)C(=N)N12	-19.8
Cc1ccc(NC(=O)Cc2ccccc2F)cc1O	-0.884
O=C1NC(=O)N(c2ccccc2)C(=O)/C1=C\Nc1ccccn1	4.08
COc1cccc(/C=c2\sc3nnc(-c4ccc(C)cc4)n3c2=O)c1	-3.14
CN1CCN(C(=O)C(C(=O)N2CCN(C)CC2)C23CC4CC(CC(C4)C2)C3)CC1	-0.736
CCOC(=O)c1ccc(CNCc2ccc(Br)cc2)cc1	4.61
O=C(NCCCN1CCN(C2CCCCC2)CC1)c1csc2c1CCCCC2	0.277
Cc1nc(N2CCCC2)ncc1C(=O)O	2.25
C=CCOC(=O)C1=C(C)N=C(S)NC1c1ccccc1OCC (stereo not shown)	-4.77
NS(=O)(=O)c1cnccc1NCCc1ccccc1	0.843
C=CCOc1cccc(CNc2cccc(C(=O)O)c2)c1	0.907
COc1ccc(C(C)C)cc1S(=O)(=O)NCc1ccccn1	5.17
N#Cc1c(NC(=O)c2ccco2)sc2c1CCCC2	-3.46
COc1cccc(-c2cc(-c3ccc(C)o3)c(C#N)c(N)n2)c1	-3.13
CN(C)c1ccc(/C=C2\NC(=O)NC2=O)cc1	-4.01
CC1CCCN(S(=O)(=O)c2ccc(S(=O)(=O)N3CCN(c4ncccn4)CC3)cc2)C1 (stereo not shown)	-2.92
CC(C)N(Cc1nc(-c2ccccc2)no1)C(=O)CSc1ccccc1	-4.62
CN(C)CC(Oc1ccc(Cl)cc1)C(=O)O (stereo not shown)	-4.26
Cc1sc2ncn(Cc3c(F)cccc3Cl)c(=O)c2c1C	5.59
Cc1ccc(C)c(N(CC(=O)Nc2ccc3c(c2)OCO3)S(=O)(=O)c2ccccc2)c1	-3.04
COc1ccc(C(CC(=O)O)NC(=O)CSc2nc3ccccc3o2)cc1 (stereo not shown)	0.9

SMILES	% Inhibition @ 10 uM [%]
c1ccc2cc(OCCCN3CCCCC3)ccc2c1	-0.351
Cc1cccc(NC(=O)c2cc3ccccc3o2)c1C	-2.14
O=C(NCc1cccnc1)C1c2ccccc2C(=O)N1Cc1ccc(F)cc1Cl (stereo not shown)	3.5
O=C1OC(c2ccccc2)=N/C1=C/c1ccc(-c2ccc(Cl)c(C(=O)O)c2)o1	44.9
COc1ccc(C2C(C(=O)c3ccc(Cl)cc3)=C(O)C(=O)N2CCO)c(OC)c1 (stereo not shown)	1.17
Cc1cccc(N2/C(=N/C(=O)c3ccccc3)SC3CS(=O)(=O)CC32)c1 (stereo not shown)	-6.67
CNC(=O)c1nnc(Cc2ccc(OC)c(OC)c2)o1	1.94
CC(C)NC(=O)c1ccc(COCC(F)(F)C(F)F)cc1	2.54
CCn1c(SCC(=O)Nc2ccc3sc(C)nc3c2)nc2ccccc2c1=O	-2.82
Cc1nn2nnnc2nc1O	-3.23
CCn1c2c(c(C)cc1=O)C(=O)CC(C)(C)C2	-2.85
COc1ccc(CNc2nc(-c3ccccc3)nn2C(=O)c2ccc(OC)c(OC)c2)cc1	0.628
O=C1CC(c2ccc(Cl)cc2)N2CCCNC2=C1C(=O)Nc1cccc2ccccc12 (stereo not shown)	-2.45
O=C(CCc1nc2cccnc2n1-c1ccccc1)N1CCc2ccccc2C1	-2.88
O=C(Nc1ccncc1)C1CCC(CNS(=O)(=O)c2cccc3nsnc23)CC1 (stereo not shown)	-2.25
CCOc1ccccc1CNC(=O)C1CCN(c2ncnc3c2nc2n3CCCCC2)CC1	5.05
COc1ccc(S(=O)(=O)N(CC(=O)Nc2ccc3c(c2)OCO3)c2cc(C)cc(C)c2)cc1OC	3.09
COc1cc(CN(C(=O)c2ccco2)C2CCS(=O)(=O)C2)cc(OC)c1OC (stereo not shown)	-1.47
O=C(NCCCCNC(=O)C12CC3CC(CC(C3)C1)C2)C12CC3CC(CC(C3)C1)C2	-7.01
O=C(CCN1C(=O)c2ccccc2C1=O)NCCc1nc2ccccc2[nH]1	-5.51
Cc1nn(-c2ccccc2)c2c1C(c1cccc(O)c1)C(C#N)=C(N)O2 (stereo not shown)	0.774
COc1ccc(Cc2nn3c(-c4ccccc4Br)nnc3s2)cc1	-0.45
CC(C)(C)c1cc(O)c2oc(=O)c(S(=O)(=O)c3ccccc3)cc2c1	-3.1
COc1cccc(C(=O)N2CCN(C(=O)c3ccco3)CC2)c1	-4.7
